Source: the supplement of paper PMC3724861
The list shows a part of the results.

test system: T1, Caupolican (Caup) homeodomain DNA-binding domain; assay: PBM E-score (8-mer, recovered from the published 9-mer minima) (E-score (dimensionless, -0.5 to 0.5)); Drosophila protein; higher = stronger relative binding preference, active = 0.31 or more
T1 sequence: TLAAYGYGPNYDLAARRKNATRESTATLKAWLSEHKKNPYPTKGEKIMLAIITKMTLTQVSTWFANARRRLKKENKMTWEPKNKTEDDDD
Method: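 Protein binding microarray (PBM): in vitro transcribed/translated Caupolican (Caup) homeodomain DNA-binding domain (residues 214-303) applied at 100 nM to a universal 8-mer PBM array (Agilent AMADID 015681). The 8-mer enrichment score (E-score, range -0.5 to 0.5) was computed, and each 9-mer score is the minimum E-score of its two constituent 8-mers. The E-score is the same for a 9-mer and its reverse complement; 0.31 is the stated binding threshold.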

Sequence	PBM E-score
CGGTCGTA	inactive: 0.0409
GCAAAAGC	inactive: -0.0362
CGGCAAAA	inactive: -0.0139
CACGAGGC	inactive: -0.0738
GCCATCGA	inactive: -0.0979
CAGGAGGC	inactive: -0.159
CGCCGGAG	inactive: -0.199
AACTAAAC	inactive: 0.102
CTTTCGCA	inactive: -0.0864
CTTCGGTC	inactive: -0.0969
ATCTAAAT	inactive: 0.112
CAATTACC	inactive: -0.00996
GCTTAGTA	inactive: 0.0621
ATTCTCGA	inactive: 0.0405
ATCGTGAC	inactive: 0.139
CTGCTACC	inactive: 0.0224
AGTGAACG	inactive: -0.0721
CCATAGTA	inactive: 0.08
AAATACGA	≥ 0.166
ACGCTACC	inactive: -0.129
ACTCCTTG	inactive: 0.0436
GCCAACCC	inactive: -0.161
GAGGTTAA	inactive: -0.0658
AGCGATTC	inactive: -0.0626
ATTTTATC	inactive: 0.153

Sequence	PBM E-score
AGAGGCCC	inactive: -0.192
ACGCTGAC	inactive: -0.0669
CAGGCCCA	inactive: -0.226
ATCGAAAC	inactive: -0.0231
GTACCAAC	inactive: 0.114
CCTGCGCA	inactive: -0.226
GCCTAAAA	inactive: -0.107
AGGAATCC	inactive: -0.082
CCAGTTCG	inactive: -0.0558
CTTACGCC	inactive: -0.0701
TACATCGA	active: 0.314
ATCGGGTA	inactive: -0.0219
ACGCGTTG	inactive: 0.0245
CAGTGACG	inactive: -0.0473
GCTGTTAA	inactive: 0.0966
ACAGCTAT	inactive: 0.145
CCGTCCTA	inactive: -0.0783
ACGGCACT	inactive: -0.0892
AAAACTCA	inactive: -0.00205
GAATGATA	inactive: 0.179
CATCGACC	inactive: -0.022
CGTGTGAG	inactive: -0.0281
TATGAAGA	inactive: 0.0466
GCATTTTA	inactive: 0.0692
AGATGTGA	inactive: 0.096

Sequence	PBM E-score
AAGCAATT	inactive: 0.11
AATCTGAA	inactive: 0.0863
CGTCTCGC	inactive: -0.162
AGCAACTC	inactive: 0.00314
CAAGCAGG	inactive: -0.0901
CACAGACC	inactive: -0.0439
CTCCGTTC	inactive: -0.061
AATCTAGC	inactive: -0.075
TCCCAAAA	inactive: -0.0172
TAGCATCA	inactive: 0.106
GCATCAGC	inactive: -0.0861
CACTCTCA	inactive: -0.0658
ACAGATCA	≥ 0.172
GGCGTGGA	inactive: -0.174
CACATAGA	inactive: 0.0991
TAAAATTA	inactive: 0.035
AGAACCCG	inactive: -0.133
ATTTATCC	inactive: 0.0759
TCATAACA	inactive: 0.205
ATCTCTAA	inactive: -0.0218
CCTTACGA	inactive: -0.0366
AGTGTTCG	inactive: 0.133
CGATACCC	inactive: -0.0449
AATAACGA	inactive: 0.159
AATCGAGT	inactive: 0.0367

Sequence	PBM E-score
CATACATA	inactive: 0.286
ATACACGA	active: 0.33
AGACAGGC	inactive: -0.00368
AAGGTCCT	inactive: -0.138
GATGTTTA	inactive: 0.247
ATAATAGA	inactive: 0.13
CGACCACC	inactive: -0.128
ATCCGCGG	inactive: -0.111
GTGACCCA	inactive: -0.128
CTACCACC	inactive: -0.0357
CGTGCACG	≥ 0.109
AATTGAAT	inactive: 0.12
CCACCACC	inactive: -0.135
ACTCAAGC	inactive: 0.0448
GATCGCAC	inactive: 0.0699
CTGGACCC	inactive: -0.286
ACGATCTA	inactive: 0.0896
CGGTAAAG	inactive: 0.0318
GACAGCAA	inactive: 0.0496
ACTGGTCG	inactive: -0.00017
AGGGCGAG	inactive: -0.194
AGTAATCC	inactive: 0.187
ACGAGGGC	inactive: -0.125
GCCTCATA	inactive: -0.118
ACGGATGG	inactive: -0.0652

Sequence	PBM E-score
CATTGCCC	inactive: -0.0987
ATGTTAAA	active: 0.353
CCCTGATA	inactive: 0.0111
GAAGAGTC	≥ 0.0427
CGTCGATA	inactive: 0.0346
ATCAAAAC	inactive: 0.0898
GACTATCA	inactive: 0.00646
CAGTTGGA	inactive: -0.0504
CTGATTCA	inactive: 0.0761
TCTCACAA	inactive: 0.048
AAAGGCTC	inactive: -0.138
AATATGCA	inactive: 0.0205
ATCGCAAC	≥ 0.0975
AATGAGCT	inactive: 0.0203
GATGTAGC	inactive: 0.166
GGAAGTCC	inactive: -0.184
ATCAGACC	inactive: -0.0214
AGGAAAGG	inactive: -0.0732
ACACGAAG	inactive: 0.174
TTAAGGAA	inactive: -0.0151
CTAGATCA	inactive: 0.0404
ACCGTGAG	inactive: -0.116
GATGCAAC	inactive: 0.0677
CTTGCTGC	inactive: -0.0454
CGTTCAAC	inactive: 0.0706

Sequence	PBM E-score
CGCAGTAC	inactive: -0.0308
GACGGGCA	inactive: -0.108
AGCTCATC	inactive: -0.167
AACTCGAA	inactive: -0.05
CATGGCTA	inactive: 0.0608
GCTTATTA	inactive: 0.0892
ACGTTATG	inactive: 0.174
CCTAACAG	inactive: -0.0355
TCGCCTAA	inactive: -0.0379
GGACAGAA	inactive: 0.0584
ATGAGCGC	inactive: -0.117
CGCTCTTC	inactive: -0.182
AAAGATTA	inactive: 0.0965
AAACTAGT	inactive: 0.19
GATTCCGA	inactive: -0.0693
CGTCGCGC	inactive: -0.187
GGACGATA	inactive: 0.00416
AGCCGCGA	inactive: -0.218
ATACGAGG	inactive: 0.00478
CAGACTCA	inactive: 0.0303
GTACACCA	inactive: 0.238
ACTCGCCG	inactive: -0.0788
CATCCCGC	inactive: -0.146
GACCCGCC	inactive: -0.165
ACAACGGA	inactive: 0.16

Sequence	PBM E-score
ATCACATG	inactive: 0.286
GCCAATAC	inactive: 0.047
ATAAGTGA	inactive: 0.0155
AATCAGGA	inactive: 0.0539
AGCGTAGA	inactive: -0.0756
AGCTGCCC	inactive: -0.142
ATTCATTG	inactive: 0.102
GCTTGCGA	inactive: -0.0639
ACCACGAC	inactive: 0.0487
AGATGGCT	inactive: -0.0854
AAGCTCAC	inactive: -0.119
CCCCTCGG	inactive: -0.234
CTACATAG	inactive: 0.215
CTGATCCC	inactive: -0.0849
AGTATCAG	inactive: 0.0752
ATGGCAAG	inactive: -0.0682
CTCGAGGA	inactive: -0.0712
ACGGGACC	inactive: -0.15
ACATGGTG	active: 0.366
AAGAGCAT	inactive: 0.107
TAACGGAA	inactive: 0.0231
ACCCGGGT	inactive: -0.178
CACTTGGG	inactive: -0.105
AGCGCTTC	inactive: -0.0427
CCCGAACG	inactive: -0.0905

Sequence	PBM E-score
CAAAATGG	inactive: 0.0491
CTAAAAGC	inactive: -0.197
TGCCACAA	inactive: 0.0197
CAACATTC	inactive: 0.0579
CGTTACGC	inactive: -0.0326
CCCCCTTC	inactive: -0.389
ATTCCGCA	inactive: -0.0995
CTTTGAGA	inactive: -0.0322
AACCCATG	inactive: 0.0859
AAATGTTC	inactive: 0.247
CATGTTTA	active: 0.399
ACCATAAT	inactive: 0.119
CATTCACA	inactive: 0.129
ACTTGCTC	inactive: 0.106
CTCTTCTC	inactive: -0.179
CCCAGGCG	inactive: -0.286
ATCTACTG	inactive: 0.119
GCACGTTA	inactive: -0.0122
ACCGACGT	≥ -0.0125
GTCAGTTA	inactive: 0.142
GTAATAAA	inactive: 0.168
ACACCATC	inactive: 0.189
AGCACAAT	inactive: 0.106
CCGGCAAA	inactive: -0.0453
ACCTGTTC	inactive: 0.199

Sequence	PBM E-score
AAAGACAA	inactive: 0.259
AACGGTTC	inactive: -0.111
CACAGTGA	inactive: 0.0675
CATGTGGG	inactive: 0.0391
AGAGACTA	inactive: 0.00357
CACAGCTC	inactive: -0.0354
ACCTAGTG	inactive: 0.0321
CAACTTCC	inactive: -0.0271
AAATTCTG	inactive: 0.0565
AAGATTGG	inactive: 0.0988
GGCACGAC	inactive: -0.0298
CCGATCCC	inactive: -0.184
CACAGATC	inactive: 0.019
AATGGGTC	inactive: -0.129
CGTCGTAA	inactive: 0.133
TCAGGGAA	inactive: -0.0973
TCTTGCCA	inactive: 0.00741
AAATGCAG	inactive: 0.0211
GCGCCATA	inactive: -0.109
AGTTTGCA	inactive: 0.0319
CCCCATAA	inactive: -0.104
CCTATTAG	inactive: 0.072
CCATATGC	inactive: 0.0246
